Laboratory results from PubChem BioAssay AID588342 (National Center for Advancing Translational Sciences (NCATS), 2011).
About 25,000 (6.9%) of roughly 360,000 compounds were called active. The inconclusive results got no clear call from the source; some entries with a clear call stand among them for comparison. Calls come from the whole dose curve; as a rule, active = well fitted inhibition curve with a large enough effect; inconclusive = small, poorly fitted or top-dose-only effect; inactive = flat fitted curve, though single readings scatter. A potency beside an inconclusive call is a rough fit, not a confirmed value.

molecular target: Luciferin 4-monooxygenase (Photinus pyralis) (UniProt P08659); assay: qHTS profiling assay for firefly luciferase inhibitor/activator using purifed enzyme and Km concentrations of substrates (counterscreen for miR-21 project); settings: purified FLuc, luminescence inhibition; series mostly up to 57.5 µM; note: nearly all actives have a fitted effect of over 55% in size
Chain of UniProt P08659 (P08659 whole entry, looked up): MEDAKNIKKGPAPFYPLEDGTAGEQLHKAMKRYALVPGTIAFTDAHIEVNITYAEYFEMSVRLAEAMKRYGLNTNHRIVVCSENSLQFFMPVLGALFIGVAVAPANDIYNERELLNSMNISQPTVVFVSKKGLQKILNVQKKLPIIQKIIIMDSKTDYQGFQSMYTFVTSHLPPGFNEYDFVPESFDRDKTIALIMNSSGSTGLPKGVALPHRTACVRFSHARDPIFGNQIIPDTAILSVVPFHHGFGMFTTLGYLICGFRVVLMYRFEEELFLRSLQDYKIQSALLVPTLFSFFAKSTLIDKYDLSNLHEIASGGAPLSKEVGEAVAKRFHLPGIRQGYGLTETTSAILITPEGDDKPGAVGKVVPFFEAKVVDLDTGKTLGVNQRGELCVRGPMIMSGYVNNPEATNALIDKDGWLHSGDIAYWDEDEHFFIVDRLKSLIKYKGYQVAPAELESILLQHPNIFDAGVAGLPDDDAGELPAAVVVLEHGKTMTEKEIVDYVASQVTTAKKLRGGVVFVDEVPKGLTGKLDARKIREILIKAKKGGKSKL
In short: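 Biochemical qHTS of compounds, final roughly 60 µM downward over six points, against 10 nM purified firefly luciferase using Km concentrations of substrates (10 uM D-luciferin, 10 uM ATP) in Tris acetate pH 7.5 buffer; luminescence output.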
Potency is the fitted concentration of half-maximal effect; tags give direction and shape of the fitted curve.

Row | Structure (SMILES) | Potency
1 | COc1ccc(-n2ncc3c(N4CCc5ccccc54)ncnc32)cc1 | active: 0.379 µM
2 | COc1ccccc1C(=O)Nc1ccc2nc(SCC(=O)N(C)C)sc2c1 | inconclusive: 16.9 µM [inhibitor, partial curve]
3 | O=C(Nc1ccc(Cl)cc1)N1CCSc2ccccc21 | inconclusive: 21.3 µM [inhibitor, partial curve, poor fit]
4 | CCOc1ccc(-c2ncncc2-c2ccc(OC)c(OC)c2)c(O)c1 | inconclusive: 23.9 µM [inhibitor, partial curve, poor fit]
5 | CC(=O)c1cccc(NC(=S)NC2CCCCCCC2)c1 | inconclusive: 19 µM [inhibitor, partial curve, poor fit]
6 | O=C(COC(=O)C1CC2C=CC1C2)Nc1ccccc1F (centres undefined) | inconclusive: 21.3 µM [inhibitor, partial curve]
7 | COc1cc(/C=N/NC(=S)NC2CC3CCC2C3)ccc1O (centres undefined) | inconclusive: 26.9 µM [inhibitor, single point]
8 | CC(=O)OCC1=C(C(=O)O)N2C(=O)C(NC(=O)c3ccc(COc4cccc(Cl)c4Cl)o3)C2SC1 (centres undefined) | inconclusive: 37.9 µM [inhibitor, single point]
9 | Cc1cn2c(=O)c(S(=O)(=O)NCc3ccccc3Cl)c(C)nc2s1 | inactive
10 | CCc1nnc(NC(=O)OCc2ccccc2)s1 | inconclusive: 19 µM [inhibitor, partial curve, poor fit]
11 | COc1ccc(-c2ccc(CCC(=O)O)n2-c2ccc(Cl)cc2C)cc1 | inconclusive: 15.1 µM [inhibitor, partial curve]
12 | CCN(C(=O)CSc1nc2ccccc2n1CC(=O)Nc1ccc(F)cc1F)c1ccccc1 | inactive
13 | CCN1CCN(c2cc(C)c3cc(NC(=O)CCC(=O)Nc4ccc(OC)cc4OC)ccc3n2)CC1 | inconclusive: 21.3 µM [inhibitor, single point]
14 | NC(=S)N/N=C/c1ccccc1OC(=O)/C=C/c1ccccc1 | active: 26.9 µM
15 | CCOC(=O)c1cccc(NC(=O)CCc2c(C)nn(-c3ccc(N4CCOCC4)nn3)c2C)c1 | inconclusive: 19 µM [inhibitor, partial curve, poor fit]
16 | Cc1ccc(Nc2nc3ccccc3n3cnnc23)cc1C | inconclusive: 6.01 µM [inhibitor, full curve]
17 | c1ccc2c(c1)Nc1ccncc1S2 | inactive
18 | O=C(/C=C/c1cccc([N+](=O)[O-])c1)c1cccs1 | inconclusive: 8.49 µM [inhibitor, full curve]
19 | Cc1ccc(/C=C2\C(=O)Nc3ccccc32)o1 | inconclusive: 26.9 µM [inhibitor, partial curve]
